# From ChEMBL document CHEMBL5606460, “ASAP - DENV-2 NS2B-NS3 protease fluorescence single point” (2024)
# About 110 (5.5%) of roughly 2,000 compounds showed an effect of 50% or more. Some of the results follow.
# Biological target: Genome polyprotein (dengue virus type 2) (UniProt P29990)
# [1] = Thailand/16681/1984, Concentration 25.0 uM, Number of replicates 1.0
compound,measurement,setting,value
NC(=O)c1ccc(Cl)c(NC(=O)C2CCN(c3ccc(C=O)cc3)CC2)c1,inhibition,[1],13.8%
C[C@H](NC(=O)C1CCN(c2ccc(C=O)cc2)CC1)c1ccccc1C(F)(F)F,inhibition,[1],13.2%
CCCC[C@H](N)C(=O)N[C@H](C(=O)NCc1ccc(C(N)=O)cc1)c1ccc(OCc2ccccc2)cc1,inhibition,"Thailand/16681/1984, Concentration 49.5 uM, Number of replicates 2.0, Standard deviation 0.2650581585371317 %",-6.18%
same,inhibition,"Thailand/16681/1984, Concentration 99.01 uM, Number of replicates 2.0, Standard deviation 5.609533791033077 %",63.5%
same,inhibition,"Thailand/16681/1984, Concentration 198.0 uM, Number of replicates 2.0, Standard deviation 0.01804559465842439 %",99.8%
COC(=O)c1csc(Cn2ncc(C3CCNCC3)c2C)n1,inhibition,"Thailand/16681/1984, Concentration 49.5 uM, Number of replicates 2.0, Standard deviation 0.7717951129802201 %",-5.62%
same,inhibition,"Thailand/16681/1984, Concentration 99.01 uM, Number of replicates 2.0, Standard deviation 0.8815947340216488 %",-4.23%
same,inhibition,"Thailand/16681/1984, Concentration 198.0 uM, Number of replicates 2.0, Standard deviation 1.4332580373412276 %",-2.98%
CCCCCC(=O)N[C@H](C(=O)N1CCC(CN)CC1)c1ccc(OCc2ccccc2)cc1,inhibition,"Thailand/16681/1984, Concentration 49.5 uM, Number of replicates 2.0, Standard deviation 0.28807609613725765 %",-0.096%
same,inhibition,"Thailand/16681/1984, Concentration 99.01 uM, Number of replicates 2.0, Standard deviation 0.6037821383349988 %",0.933%
same,inhibition,"Thailand/16681/1984, Concentration 198.0 uM, Number of replicates 2.0, Standard deviation 0.26542854504184543 %",3.19%
CC(C)Nc1nc2cc(NC(=O)Cc3cocn3)ccc2[nH]1,inhibition,"Thailand/16681/1984, Concentration 49.5 uM, Number of replicates 2.0, Standard deviation 2.957660172947234 %",-2.35%
same,inhibition,"Thailand/16681/1984, Concentration 99.01 uM, Number of replicates 2.0, Standard deviation 2.6234643030394076 %",-2.94%
same,inhibition,"Thailand/16681/1984, Concentration 198.0 uM, Number of replicates 2.0, Standard deviation 1.9636006829919945 %",-2.38%
O=C(/C=C/c1ccc(N2CCNCC2)cc1)C(=O)N1CCOCC1,inhibition,"Thailand/16681/1984, Concentration 49.5 uM, Number of replicates 2.0, Standard deviation 1.4144964098734516 %",1.52%
same,inhibition,"Thailand/16681/1984, Concentration 99.01 uM, Number of replicates 2.0, Standard deviation 0.4568300281843685 %",5.18%
same,inhibition,"Thailand/16681/1984, Concentration 198.0 uM, Number of replicates 2.0, Standard deviation 1.1436463049734074 %",13.3%
O=Cc1ccc(N2CCC(C(=O)NCCc3ccc(-c4ccccc4)cc3)CC2)cc1,inhibition,[1],0.487%
COc1ccc(CNC(=O)C2CCN(c3ccc(C=O)cc3)CC2)c(OC)c1,inhibition,[1],10.2%
Cc1cnccc1NC(=O)c1cc(N2CCCC2)ncn1,inhibition,"Thailand/16681/1984, Concentration 49.5 uM, Number of replicates 2.0, Standard deviation 2.024173375028578 %",-5.29%
same,inhibition,"Thailand/16681/1984, Concentration 99.01 uM, Number of replicates 2.0, Standard deviation 1.1380880628854877 %",-2.63%
same,inhibition,"Thailand/16681/1984, Concentration 198.0 uM, Number of replicates 2.0, Standard deviation 2.133693646758077 %",-2%
O=C(Nc1cnn2c1CNCC2)c1cccc2ncccc12,inhibition,"Thailand/16681/1984, Concentration 49.5 uM, Number of replicates 2.0, Standard deviation 0.6601434145354308 %",-0.425%
same,inhibition,"Thailand/16681/1984, Concentration 99.01 uM, Number of replicates 2.0, Standard deviation 0.6930578457318657 %",0.074%
same,inhibition,"Thailand/16681/1984, Concentration 198.0 uM, Number of replicates 2.0, Standard deviation 0.9980960153032259 %",0.703%
COc1cc(Cc2cnc(N)c(C(F)F)c2)nc(N2CCNCC2)n1,inhibition,"Thailand/16681/1984, Concentration 49.5 uM, Number of replicates 2.0, Standard deviation 0.44655669171298956 %",1.19%
same,inhibition,"Thailand/16681/1984, Concentration 99.01 uM, Number of replicates 2.0, Standard deviation 0.9500169394185984 %",3.1%
same,inhibition,"Thailand/16681/1984, Concentration 198.0 uM, Number of replicates 2.0, Standard deviation 0.4205436146652173 %",6.14%
Cc1cnccc1NC(=O)c1cccn(C[C@@H](C)CN)c1=O,inhibition,"Thailand/16681/1984, Concentration 49.5 uM, Number of replicates 2.0, Standard deviation 0.06828430090862199 %",5.8%
same,inhibition,"Thailand/16681/1984, Concentration 99.01 uM, Number of replicates 2.0, Standard deviation 0.6779640899025988 %",10.2%
same,inhibition,"Thailand/16681/1984, Concentration 198.0 uM, Number of replicates 2.0, Standard deviation 0.14036181818322443 %",17.5%
O=Cc1ccc(N2CCC(C(=O)Nc3cc(C(F)(F)F)ccn3)CC2)cc1,inhibition,[1],10.8%
N[C@@H]1CCCC[C@H]1C(=O)Nc1cccc2cccnc12,inhibition,"Thailand/16681/1984, Concentration 49.95 uM, Number of replicates 2.0, Standard deviation 3.2838754106489776 %",-8.7%
same,inhibition,"Thailand/16681/1984, Concentration 99.9 uM, Number of replicates 2.0, Standard deviation 3.148144351005342 %",-7.2%
COc1ccc([C@@H]2CCCN2C(=O)C2CCN(c3ccc(C=O)cc3)CC2)cc1,inhibition,[1],14.1%
O=Cc1ccc(N2CCC(C(=O)Nc3cnc4sccn4c3=O)CC2)cc1,inhibition,[1],19.7%
Cc1cc(CO)c2cccc(NC(=O)C(=O)c3ccco3)c2n1,inhibition,"Thailand/16681/1984, Concentration 49.95 uM, Number of replicates 2.0, Standard deviation 1.9477646790136023 %",6.42%
same,inhibition,"Thailand/16681/1984, Concentration 99.9 uM, Number of replicates 2.0, Standard deviation 0.958680982773286 %",10.7%
Cc1cnccc1NC(=O)c1ccn(CC(C)C)n1,inhibition,"Thailand/16681/1984, Concentration 49.5 uM, Number of replicates 2.0, Standard deviation 0.033579405732993534 %",-2.94%
same,inhibition,"Thailand/16681/1984, Concentration 99.01 uM, Number of replicates 2.0, Standard deviation 0.865071652118832 %",-3.19%
same,inhibition,"Thailand/16681/1984, Concentration 198.0 uM, Number of replicates 2.0, Standard deviation 1.2994729819870372 %",-3.3%
Cc1cnccc1NC(=O)c1cccn(C[C@@H]2CCNC2)c1=O,inhibition,"Thailand/16681/1984, Concentration 49.5 uM, Number of replicates 2.0, Standard deviation 0.09863272923477039 %",4.57%
same,inhibition,"Thailand/16681/1984, Concentration 99.01 uM, Number of replicates 2.0, Standard deviation 0.0802068014153837 %",8.01%
same,inhibition,"Thailand/16681/1984, Concentration 198.0 uM, Number of replicates 2.0, Standard deviation 1.070868475663948 %",14.4%
